PubChem BioAssay AID652104 (National Center for Advancing Translational Sciences (NCATS), 2013)
About 7,200 (1.8%) of roughly 410,000 compounds were called active. This list was built around the results that the source calls inconclusive (neither active nor inactive); the mix of calls is not that of the screen. Calls come from the whole dose curve; as a rule, active = well fitted activation curve with a large enough effect; inconclusive = small, poorly fitted or top-dose-only effect, or another doubt; inactive = no such curve, though single readings can be large or run the other way. Potencies of inconclusive entries are left out as doubtful fits.

Experiment: qHTS of TDP-43 Inhibitors; note: nearly all actives have a fitted effect of over 50% in size
Settings: TDP-43 expressing yeast growth rescue, BacTiter-Glo, 24 h; series mostly up to 46.1 µM
Outline: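 Luminescence from BacTiter-Glo reports growth of TDP-43-expressing yeast after 24 hr at 30 deg C with compound. Cells were raffinose-pregrown to mid-log, then seeded in galactose medium at OD600=0.02.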
Potency is the fitted concentration of half-maximal effect; tags give direction and shape of the fitted curve.

Compound	Potency
O=C(COc1ccccc1F)N1CCc2ccccc2C1	inconclusive [activator, partial curve]
Oc1ccc2ccccc2c1/C=C/c1ccc2c(Br)cc(Br)c(O)c2n1	active: 15.8 µM
Cc1cccc(NCCC(=O)c2ccc(Br)cc2)c1	inconclusive [activator, single point]
Fc1cccc(Nc2cc(-n3cccn3)ncn2)c1	inconclusive [activator, single point]
CCOc1ccccc1Oc1nc(C)nc2c1oc1ccccc12	inactive
CCCCC1CCC(C(=O)Nc2ccc(N3CCOCC3)cc2N2CCOCC2)CC1 (stereo not drawn)	inconclusive [activator, partial curve, poor fit]
COc1ccc([C@H]2CC(=O)C=C(c3ccccc3)C2)cc1	active: 17.8 µM
CCC(=O)N1c2ccccc2CC1C(=O)N1CCN(c2ccccc2F)CC1 (stereo not drawn)	inconclusive [activator, partial curve]
CC(N=Cc1cc([N+](=O)[O-])ccc1O)c1ccccc1 (stereo not drawn)	inconclusive [activator, partial curve]
Cc1ccc(Cl)cc1N1CCN(C(=O)CCS(=O)(=O)c2ccc3c(c2)oc(=O)n3C)CC1	inconclusive [activator, partial curve, poor fit]
CCOc1cccc(NC(=O)C2CC(=O)N(C)C(=Nc3ccc(OC)cc3)S2)c1 (stereo not drawn)	inactive
COc1ccc(NC(=O)C(C2CC2)n2c(=O)c(-c3cc4ccccc4[nH]3)nc3ccccc32)cc1 (stereo not drawn)	inactive
O=C1C=CC(=Nc2ccc3c(c2)C(=O)c2ccccc2-3)O1	inconclusive [activator, single point]
CC(CNC(=O)C1CCN(C(=O)c2cc3sccc3n2C)CC1)c1ccccc1 (stereo not drawn)	inconclusive [activator, partial curve]
Cc1cc(C(=O)OCC(=O)NC(C)C)c2ccccc2n1	inconclusive [activator, single point]
CCCNS(=O)(=O)c1cccc(C(=O)NC2CCCc3ccccc32)c1 (stereo not drawn)	inactive
O=C(O)c1cccc(N/N=C/c2cccc3ccccc23)c1	inconclusive [activator, single point]
Cc1ccc(S(=O)(=O)C(CNS(=O)(=O)c2ccc(F)c(C(F)(F)F)c2)c2ccco2)cc1 (stereo not drawn)	active: 3.98 µM
Cc1cccc(COc2ccccc2C(=O)N(C)CC(=O)Nc2cccc(F)c2)c1	active: 25.1 µM
CCOC(=O)c1ccc(-c2ccc(/C=C(\C#N)C(=O)Nc3ccc(C)cc3)o2)cc1	inactive
Cc1ccc(Cc2c(-c3cccc(Cl)c3)nc3ccc(C)cn23)cc1	active: 28.2 µM
COC(=O)c1ccc2nc(-c3ccco3)c(Cc3ccc(OC)cc3C)n2c1	inconclusive [activator, partial curve, poor fit]
CCn1c(/C=C/c2ccccc2F)nc2ccccc2c1=O	active: 8.91 µM
Cc1ccc(C(=O)NCC(=O)Nc2ccc(Cl)cc2)s1	inconclusive [activator, partial curve]
Cc1ccc(CNC(=O)CN2C(=O)CCc3cc(S(=O)(=O)N4CCCCC4)ccc32)cc1	inactive

Compound	Potency
CCn1cc(S(=O)(=O)c2ccc(Cl)cc2)c(=O)c2cc(F)c(N3CCOCC3)cc21	inactive
CSc1ccccc1-c1nc(-c2ccncc2)no1	active: 14.1 µM
Cn1c(NC(=O)c2cccs2)cc(=O)n(C)c1=O	inactive
CCOc1ccccc1CNC(=O)c1oc2ccc3c(c2c1C)C(=O)CC(C)(C)O3	inactive
COc1cccc(NC(=O)CN(C)C(=O)c2ccc(-c3ccc(Cl)cc3)o2)c1	inconclusive [activator, single point]
O=C(NCCC1=CCCCC1)c1ccc(=O)oc1	inconclusive [activator, single point]
CC(=O)c1cc2c(cc1NC(=O)CCNC(=O)c1ccccc1Cl)OCO2	inconclusive [activator, single point]
Cc1ccc(Nc2ncnc3c2cnn3C)cc1	inconclusive [activator, partial curve]
Fc1ccccc1-c1cc2ncccc2cn1	inconclusive [activator, single point]
Cc1ccc(-n2nc(CO)c(C(=O)NCc3cccnc3)n2)cc1	inactive
O=C(O)c1cccc(N2C(=O)CSC2=S)c1	inconclusive [activator, partial curve, poor fit]
Clc1ccc(C(c2ccccc2)c2c[nH]c3ccccc23)s1 (stereo not drawn)	active: 20 µM
Cc1ccc(C)n1-c1nnc(N2CCCC(C(=O)NCc3cccc(F)c3)C2)s1 (stereo not drawn)	inactive
O=C(c1ccc(N2CCCC2=O)cc1)N1CCN(c2ccccc2F)CC1	inconclusive [activator, partial curve]
CN1OC[C@@H]2CN(S(=O)(=O)c3cc(Cl)cc(Cl)c3)[C@H](c3ccc(-c4ccc(C#N)cc4)cc3)C[C@@H]21	inconclusive [activator, single point]
COc1cc(OC)cc(-c2cc3nc(C)c(CCC(=O)NCc4ccc(Cl)cc4)c(C)n3n2)c1	inconclusive [activator, single point]
NC(=O)c1nc(Nc2ccccc2)sc1NC(=O)c1ccccc1Br	inactive
O=C(C1CCN(S(=O)(=O)Cc2ccccc2)CC1)N1CCN(c2ccccc2)CC1	inactive
Cc1cc2n(n1)C(c1ccccc1Cl)Nc1ccccc1-2 (stereo not drawn)	inconclusive [activator, single point]
Cc1cccc(OCc2nnc(SCC(=O)c3ccccc3)o2)c1	active: 12.6 µM
Cc1ccc(C(C)NC(=O)c2ccc3c(c2)OCO3)cc1C (stereo not drawn)	inconclusive [activator, single point]
CSc1nnc(-c2sc(-c3ccccc3)nc2C)n1C	inactive
COc1ccc(S(=O)(=O)NCc2cccnc2)cc1C(=O)NC1CCCCC1	inactive
Cc1ccc(C(=O)N2CCN(c3ccc(NC(=O)c4ccc(Br)o4)cc3)CC2)cc1	inconclusive [activator, partial curve]
Cc1ccc(OCC(=O)Nc2ccc3nc(SCC(=O)N4CCOCC4)sc3c2)cc1	inactive

Compound	Potency
O=C(NC1CCCCC1)C(c1ccc(F)cc1)N(Cc1ccco1)C(=O)Cn1nnc2ccccc21 (stereo not drawn)	inactive
Cc1nn(C)c2c1c(-c1ccccc1)cc(=O)n2CC(=O)Nc1ccccc1C(F)(F)F	inconclusive [activator, partial curve]
Nc1cc2c(cc1Cl)-c1ccccc1C2=NO	inconclusive [activator, partial curve]
COc1cc(C(CC(=O)Nc2ccccn2)N2Cc3ccccc3C2=O)cc(OC)c1OC (stereo not drawn)	inconclusive [activator, partial curve]
COc1ccc(Nc2nc(N/N=C/c3ccc(N(C)C)cc3)nc(C)c2[N+](=O)[O-])cc1	inactive
CC(C)Oc1ccc(C2CC(=O)N(c3ccccc3)C2=O)cc1 (stereo not drawn)	inconclusive [activator, partial curve]
CC1CCN(C(=O)CN(c2ccc3c(c2)OCCO3)S(=O)(=O)c2ccccc2)CC1	inactive
O=S(=O)(NCc1csc(-c2ccccc2)n1)c1ccc(Cl)s1	inconclusive [activator, partial curve]
O=C(Nc1ccc2c(c1)OCO2)c1cc(C2CCCN(C(=O)CCCc3ccccc3)C2)on1 (stereo not drawn)	inconclusive [activator, single point]
CC1CCCC(NC(=O)c2cccc(S(=O)(=O)NCc3ccccc3)c2)C1C (stereo not drawn)	active: 35.5 µM
O=C1Nc2ccc(Cl)cc2C(C#CC2CC2)(C(F)(F)F)O1 (stereo not drawn)	inconclusive [activator, single point]
O=C(Nc1ccc(C(=O)O)cc1)/C(=C\c1ccco1)NC(=O)c1ccco1	inactive
COc1cc(CNC(=O)c2cc(-c3cc(Cl)ccc3C)n[nH]2)cc(OC)c1	inactive
CC1CCCC(C)N1C(=O)CSc1nnnn1-c1cccc2c1CCCC2 (stereo not drawn)	inconclusive [activator, single point]
Cc1ccc(OCC(=O)Nc2ccc(Cl)c(-c3nc4ncccc4o3)c2)c(C)c1	inconclusive [activator, partial curve]
C=C(C)[C@@H]1CC=C(C(=O)O)CC1	inconclusive [activator, single point]
Cc1ccc(C2CN(C)C3(C(=O)Nc4ccccc43)C23COc2ccccc2C3=O)cc1 (stereo not drawn)	active: 3.55 µM
Cc1ccccc1[C@H](NC1c2ccccc2C=Cc2ccccc21)P(=O)(c1ccccc1)c1ccccc1	inconclusive [activator, partial curve, poor fit]
CCOc1ccc(CNC(=O)CCCn2nc(CC)n3c(cc4occc43)c2=O)cc1	inactive
CC(=O)CSc1nnc2cc(C)c3cc(C)cc(C)c3n12	inactive
Cc1ccc(-c2nc3cnccn3c2Nc2ccc3c(c2)OCO3)cc1	inconclusive [activator, single point]
Cc1nn(C(C)C(=O)N2CCN(c3ccc(Cl)cc3)CC2)c(=O)c2cc3occc3n12 (stereo not drawn)	inconclusive [activator, partial curve]
Cc1cccc(CS(=O)(=O)c2ncc(Cl)c(C(=O)Nc3c(C)cccc3C)n2)c1	inconclusive [activator, single point]
